What all share (test): Primary Screen for Target Class Profiling of Small Molecule Inhibitors of Methyltransferases
Assay [1] addresses Glycine N-methyltransferase (Homo sapiens) (UniProt Q14749). Particulars: purified enzyme, MTase-Glo SAH luminescence; measured here: GNMT inhibition; at 40 µM; stronger effect = lower value. The method, boiled down:
(§1)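 Each enzyme was assayed with SAM and its substrate. SAH formation detected by MTase-Glo luminescence; single-point 40 uM screen[…].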

Assay [2] has as its target Guanidinoacetate N-methyltransferase (Homo sapiens) (UniProt Q14353). Particulars: purified enzyme, MTase-Glo SAH luminescence; measured here: GAMT inhibition; at 40 µM; stronger effect = lower value. Summed up:
as §1

The target of assay [3] is Histamine N-methyltransferase (Homo sapiens) (UniProt P50135). Particulars: purified enzyme, MTase-Glo SAH luminescence; measured here: HNMT inhibition; at 40 µM; stronger effect = lower value. The method, boiled down: as §1
In assay [4] the target is Nicotinamide N-methyltransferase (Homo sapiens) (UniProt P40261). Particulars: purified enzyme, MTase-Glo SAH luminescence; measured here: NNMT inhibition; at 40 µM; stronger effect = lower value. Summed up:
as §1

Assay [5] concerns the target Phenylethanolamine N-methyltransferase (Homo sapiens) (UniProt P11086). The note with it: purified enzyme, MTase-Glo SAH luminescence; measured here: PNMT inhibition; at 40 µM; stronger effect = lower value. Summed up: as §1

The source of these data is PubChem BioAssay AID1745853 (National Center for Advancing Translational Sciences (NCATS), 2022).

Each structure is given as a SMILES string. The list shows a part of the results. Shown are side measurements of this screen, not its main read-out; they come without a call.
% is set by controls: 0 for no effect and ±100 for the full control effect.

Take `O=C(Cn1c(=O)oc2cc(S(=O)(=O)NC3CCCC3)ccc21)NCc1ccc(F)cc1`: the activity change, negative = inhibition is -2.06% in assay [1]; 7.02% in assay [2]; 3.09% in assay [3]; 4.06% in assay [4]; -2.53% in assay [5].

As for `COc1ccc(N2C(=O)c3cc4occc4n3CC2(C)C(=O)NC2CCCCCCC2)cc1OC` (stereo not given), the activity change, negative = inhibition in assay [1] was -9.37%; in assay [2], -0.562%; in assay [3], -3.05%; in assay [4] it was 0.235%; in assay [5], -4.01%.

Turning to `CN(CCc1ccccn1)C(=O)CCC[C@@H]1[C@H]2CCCN3CCC[C@@H](CN1C(=O)c1ccccc1)[C@@H]23`, the activity change, negative = inhibition in assay [1] is -5.59%; in assay [2], -2.07%; in assay [3] it was -5.92%; in assay [4] it was -10.3%; in assay [5] it was -6.21%.

For the compound `Cc1ccc(CNC(=O)c2ccc3c(c2)CN(Cc2scnc2C)CCO3)cc1`, the activity change, negative = inhibition in assay [1] is -5.65%; in assay [2], -1.06%; in assay [3], -4.39%; in assay [4], -10.2%; in assay [5], -7.16%.

Consider `CC(C)c1ccc(CN2CCCC3(CCN(c4ncccc4C(N)=O)C3)C2)cc1` (stereo not given), for which the activity change, negative = inhibition in assay [1] was -8.91%; in assay [2], -8.66%; in assay [3] it was -9.45%; in assay [4] it was -14%; in assay [5], 8.49%.

In the case of `CN(C)C[C@@H]1CN(c2ncccn2)C[C@H]1N`, the activity change, negative = inhibition in assay [1] is -2.95%; in assay [2] it was -5.55%; in assay [3] it was -1.2%; in assay [4], -6.68%; in assay [5], -0.501%.

As for `CCOP(=O)(Cc1ccc(C(=O)Nc2ccc(Br)cc2C#N)cc1)OCC`, the activity change, negative = inhibition in assay [1] is -6.62%; in assay [2] it was -6.3%; in assay [3], -11.3%; in assay [4] it was -24.6%; in assay [5], -11.8%.

Take `COc1ccc(C2(C(=O)N3CCCC(Cn4c(C)nc5cccnc54)C3)CCCCC2)cc1` (stereo not given): the activity change, negative = inhibition in assay [1] is -6.18%; in assay [2] it was -6.49%; in assay [3] it was -2.92%; in assay [4], -21.3%; in assay [5] it was -2.47%.

Turning to `COc1ccc2[nH]c(S(=O)Cc3ncc(C)c(OC)c3C)nc2n1` (stereo not given), the activity change, negative = inhibition in assay [1] was -0.733%; in assay [2], 3.92%; in assay [3], 7.36%; in assay [4], -24%; in assay [5] it was -4.79%.

On to `NC(=O)c1ccc2c(c1)C1(CCN(CC3CC3)C1)CN2Cc1ccccc1` (stereo not given), for which the activity change, negative = inhibition is -24.2% in assay [1]; -10.3% in assay [2]; -39.2% in assay [3]; -26.9% in assay [4]; -47.2% in assay [5].

For `C[C@@H]1O[C@@H](O[C@H]2[C@H](OC(=O)[C@]34CCC(C)(C)C[C@H]3C3=CCC5[C@@]6(C)CC[C@H](O[C@@H]7O[C@H](CO[C@@H]8OC[C@H](O)[C@H](O)[C@H]8O)[C@@H](O)[C@H](O)[C@H]7O)C(C)(C)C6CC[C@@]5(C)[C@]3(C)C[C@H]4O)OC[C@@H](O)[C@@H]2O)[C@H](O)[C@H](O[C@@H]2OC[C@](O)(CO)[C@H]2O)[C@H]1O[C@@H]1OC[C@H](O)[C@H](O[C@@H]2OC[C@@H](O)[C@H](O)[C@H]2O)[C@H]1O` (stereo not given in full), the activity change, negative = inhibition in assay [1] was 1.33%; in assay [2], 4.14%; in assay [3], 4.03%; in assay [4], -3.52%; in assay [5], -3.91%.

In the case of `CC(=O)Oc1ccc2c(=O)c(C3NC(C(=O)O)Cc4c3[nH]c3ccccc43)coc2c1` (stereo not given), the activity change, negative = inhibition was -16.8% in assay [1]; -1.29% in assay [2]; -26.7% in assay [3]; -4.69% in assay [4]; -6.13% in assay [5].

For `CCOC(=O)c1cc2n(n1)CC(C)(C(=O)NCCC(C)C)N(c1ccc(Cl)cc1)C2=O` (stereo not given), the activity change, negative = inhibition in assay [1] was 1.52%; in assay [2], 0.571%; in assay [3], 3.87%; in assay [4], 5.6%; in assay [5], -1.2%.

Take `CCN1C(=O)c2c(C(=O)NCc3ccc(F)cc3)ncn2CC1(C)C(=O)NC1CCCC1` (stereo not given): the activity change, negative = inhibition is -4.18% in assay [1]; -9.26% in assay [2]; -0.182% in assay [3]; -11.6% in assay [4]; -4.24% in assay [5].

With `O=c1[nH]c([C@@H]2CCCN2)nc2c1oc1ccc(Cl)cc12`, the activity change, negative = inhibition in assay [1] is 0.399%; in assay [2], 6.78%; in assay [3], 1.59%; in assay [4], -19.2%; in assay [5], -9.78%.

As to `C=CCNC(=O)c1cc2n(n1)CC(C)(C(=O)NCc1ccc(F)cc1)N(C)C2=O` (stereo not given), the activity change, negative = inhibition in assay [1] was 0.229%; in assay [2], 3.1%; in assay [3], 3.37%; in assay [4], -1.61%; in assay [5], -0.966%.

On to `O=C(c1cc2ccccc2o1)N1CCC2(CCCN(Cc3ccccc3F)C2)C1` (stereo not given), for which the activity change, negative = inhibition was -9.53% in assay [1]; -3.85% in assay [2]; -9.47% in assay [3]; -14.6% in assay [4]; -29.2% in assay [5].

Regarding `Cc1cc(C)cc(N2C(=O)CSc3c(c4ccccc4n3C)C2C(=O)NCCCOC(C)C)c1` (stereo not given), the activity change, negative = inhibition was -6.39% in assay [1]; 0% in assay [2]; 6.81% in assay [3]; 0.219% in assay [4]; 2.65% in assay [5].

With `CC(C)(C)NS(=O)(=O)c1ccc(-c2ccc3[nH]nc(N)c3c2)cc1`, the activity change, negative = inhibition in assay [1] is 1.23%; in assay [2], 1.77%; in assay [3], 8.75%; in assay [4], -17%; in assay [5], 4.28%.

Regarding `CC(=O)N[C@H]1[C@H](O[C@H]2CC[C@@]3(C)C(CC[C@]4(C)C3CC=C3C5CC(C)(C)CC[C@]5(C(=O)O)[C@H](O[C@@H]5O[C@H](CO)[C@@H](O)[C@H](O)[C@H]5O)C[C@]34C)C2(C)C)O[C@H](CO[C@@H]2OC[C@H](O)[C@H](O)[C@H]2O[C@@H]2OC[C@@H](O)[C@H](O)[C@H]2O)[C@@H](O)[C@@H]1O` (stereo not given in full), the activity change, negative = inhibition in assay [1] was -0.702%; in assay [2], -3.42%; in assay [3], -0.528%; in assay [4], -12.4%; in assay [5], 2.26%.

As to `CC1(C(=O)NC2CCCC2)Cn2c(nc3ccccc32)C(=O)N1Cc1ccccc1Cl` (stereo not given), the activity change, negative = inhibition in assay [1] is -0.58%; in assay [2], 0%; in assay [3] it was -2.44%; in assay [4], -0.748%; in assay [5], -0.592%.

In the case of `O=C(CC1C(=O)NCCN1Cc1ccoc1)NCc1nnc2n1CCCCC2` (stereo not given), the activity change, negative = inhibition was -12.1% in assay [1]; -8.06% in assay [2]; -2.54% in assay [3]; -11.4% in assay [4]; -18.7% in assay [5].

On to `CC(C)Oc1ccc2c(NC(=O)[C@H]3CCCO3)nn(CC(F)(F)F)c2c1`, for which the activity change, negative = inhibition in assay [1] is -0.627%; in assay [2], -0.385%; in assay [3], 1.5%; in assay [4] it was -2.51%; in assay [5], 1.56%.

Regarding `Nc1ncnc2c1c(-c1cccc(OCc3ccccc3)c1)cn2C1CC(CN2CCCC2)C1` (stereo not given), the activity change, negative = inhibition in assay [1] is -56.7%; in assay [2] it was -46.5%; in assay [3], -91.7%; in assay [4] it was -80%; in assay [5] it was -99%.

Consider `O=C(Cn1nc2c(cc1=O)CCCCC2)NC1CCN(C(=O)c2cc3ccccc3[nH]2)CC1`, for which the activity change, negative = inhibition is -5.02% in assay [1]; 1.5% in assay [2]; -0.48% in assay [3]; -7.55% in assay [4]; -41.7% in assay [5].

In the case of `CNC(=O)N1CCC(C2CCN(C(=O)CCn3cccn3)C2)CC1` (stereo not given), the activity change, negative = inhibition is -2.23% in assay [1]; -6.78% in assay [2]; -1.6% in assay [3]; -7.61% in assay [4]; -4.62% in assay [5].

Regarding `CCCn1c(=O)c2ccc(C(=O)NC(C)C)cc2n2c(=O)n(C(C)C(=O)c3ccc(C)c(C)c3)nc12` (stereo not given), the activity change, negative = inhibition in assay [1] is 5.54%; in assay [2], 1.5%; in assay [3] it was 10.6%; in assay [4], -2.17%; in assay [5] it was 10.3%.

With `CCCCCCCCCC(=O)N[C@@H](Cc1c[nH]c2ccccc12)C(=O)N[C@H](CC(N)=O)C(=O)N[C@@H](CC(=O)O)C(=O)N[C@@H]1C(=O)NCC(=O)N[C@@H](CCCN)C(=O)N[C@@H](CC(=O)O)C(=O)N[C@H](C)C(=O)N[C@@H](CC(=O)O)C(=O)NCC(=O)N[C@H](CO)C(=O)N[C@@H]([C@@H](C)CC(=O)O)C(=O)N[C@@H](CC(=O)c2ccccc2N)C(=O)O[C@@H]1C`, the activity change, negative = inhibition in assay [1] was 0.123%; in assay [2] it was 8.57%; in assay [3], 1.77%; in assay [4] it was -8.64%; in assay [5] it was -3.98%.
